From publication PMC12820563, “FoxP3 forms a head-to-head dimer in vivo and stabilizes its multimerization on adjacent microsatellites”
The other results are listed elsewhere or left out.

Each sequence was assayed against T1, MBP-FoxP1dN (Mus musculus, UniProt P58462 326-579) (assay: PD-seq (MBP pull-down with sequencing); 20 mM Tris-HCl pH 7.5, 100 mM NaCl, 1.5 mM MgCl2, 0.4 uM protein, 0.1 uM dsDNA library, 30 min, room temperature, amylose pull-down; high values mean tight binding). Details: protein: recombinant; tags: His6-MBP; chain copies: 2; dsDNA, one strand shown.
T1 sequence: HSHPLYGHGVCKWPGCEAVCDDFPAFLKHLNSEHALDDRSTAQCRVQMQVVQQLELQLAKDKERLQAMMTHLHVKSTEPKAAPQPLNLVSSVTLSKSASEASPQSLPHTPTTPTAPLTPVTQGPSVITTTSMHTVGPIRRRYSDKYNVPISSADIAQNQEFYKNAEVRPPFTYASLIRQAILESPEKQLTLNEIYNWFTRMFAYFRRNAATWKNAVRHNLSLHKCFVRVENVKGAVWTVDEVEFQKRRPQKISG
Summary of the method: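 Protein and DNA were mixed at 0.4 µM and 0.1 µM and held for 30 min at room temperature in Tris pH 7.5 buffer with NaCl and MgCl2; the protein was a His6-MBP-tagged, N-terminally truncated mouse FoxP3 or FoxP1 fragment from E. coli, and the DNA a Klenow-filled double-stranded degenerate library. Amylose resin captured the complexes, which were washed three times. Binding is read as reads-per-million enrichment of pull-down versus input after Illumina sequencing, with replicates pooled.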

Sequence | binding signal
GATGATTGTTCTCCCAGCTGATGAATTCACTTTGTCGAGTAAACAAATTTTCCTAATCTTTCTGTTCAAGCGCCATCTAC | 0.859 RPM ratio (pull-down/input)
GATGATTGTTCTCCCAGCTGATGAATTTTTACACTCGAGTAAACAAATTTTCCTAATCTTTCTGTTCAAGCGCCATCTAC | 0.965 RPM ratio (pull-down/input)
GATGATTGTTCTCCCAGCTGATGAATTCCTCAATTCGAGTAAACAAATTTTCCTAATCTTTCTGTTCAAGCGCCATCTAC | 0.959 RPM ratio (pull-down/input)
GATGATTGTTCTCCCAGCTGATGAATTACTTGAATCGAGTAAACAAATTTTCCTAATCTTTCTGTTCAAGCGCCATCTAC | 1.12 RPM ratio (pull-down/input)
GATGATTGTTCTCCCAGCTGATGAATTCTTATAATCGAGTAAACAAATTTTCCTAATCTTTCTGTTCAAGCGCCATCTAC | 1.2 RPM ratio (pull-down/input)
GATGATTGTTCTCCCAGCTGATGAATTGAAATGCTCGAGTAAACAAATTTTCCTAATCTTTCTGTTCAAGCGCCATCTAC | 1.07 RPM ratio (pull-down/input)
GATGATTGTTCTCCCAGCTGATGAATTGCGCTGATCGAGTAAACAAATTTTCCTAATCTTTCTGTTCAAGCGCCATCTAC | 1.12 RPM ratio (pull-down/input)
GATGATTGTTCTCCCAGCTGATGAATTGTATCTCTCGAGTAAACAAATTTTCCTAATCTTTCTGTTCAAGCGCCATCTAC | 1.2 RPM ratio (pull-down/input)
GATGATTGTTCTCCCAGCTGATGAATTCCACTGGTCGAGTAAACAAATTTTCCTAATCTTTCTGTTCAAGCGCCATCTAC | 0.752 RPM ratio (pull-down/input)
GATGATTGTTCTCCCAGCTGATGAATTCCTTGGCTCGAGTAAACAAATTTTCCTAATCTTTCTGTTCAAGCGCCATCTAC | 0.766 RPM ratio (pull-down/input)
GATGATTGTTCTCCCAGCTGATGAATTCCAGCTATCGAGTAAACAAATTTTCCTAATCTTTCTGTTCAAGCGCCATCTAC | 0.883 RPM ratio (pull-down/input)
GATGATTGTTCTCCCAGCTGATGAATTCTCTTTTTCGAGTAAACAAATTTTCCTAATCTTTCTGTTCAAGCGCCATCTAC | 0.96 RPM ratio (pull-down/input)
GATGATTGTTCTCCCAGCTGATGAATTATCTCAGTCGAGTAAACAAATTTTCCTAATCTTTCTGTTCAAGCGCCATCTAC | 0.957 RPM ratio (pull-down/input)
GATGATTGTTCTCCCAGCTGATGAATTATAAAGATCGAGTAAACAAATTTTCCTAATCTTTCTGTTCAAGCGCCATCTAC | 1.08 RPM ratio (pull-down/input)
GATGATTGTTCTCCCAGCTGATGAATTTTCCACCTCGAGTAAACAAATTTTCCTAATCTTTCTGTTCAAGCGCCATCTAC | 0.878 RPM ratio (pull-down/input)
GATGATTGTTCTCCCAGCTGATGAATTCCATCTCTCGAGTAAACAAATTTTCCTAATCTTTCTGTTCAAGCGCCATCTAC | 0.851 RPM ratio (pull-down/input)
GATGATTGTTCTCCCAGCTGATGAATTCCATATGTCGAGTAAACAAATTTTCCTAATCTTTCTGTTCAAGCGCCATCTAC | 0.896 RPM ratio (pull-down/input)
GATGATTGTTCTCCCAGCTGATGAATTCTCAAGATCGAGTAAACAAATTTTCCTAATCTTTCTGTTCAAGCGCCATCTAC | 0.801 RPM ratio (pull-down/input)
GATGATTGTTCTCCCAGCTGATGAATTGCCAGACTCGAGTAAACAAATTTTCCTAATCTTTCTGTTCAAGCGCCATCTAC | 0.901 RPM ratio (pull-down/input)
GATGATTGTTCTCCCAGCTGATGAATTCAGCCCTTCGAGTAAACAAATTTTCCTAATCTTTCTGTTCAAGCGCCATCTAC | 0.851 RPM ratio (pull-down/input)

Sequence | binding signal
GATGATTGTTCTCCCAGCTGATGAATTGCATGGATCGAGTAAACAAATTTTCCTAATCTTTCTGTTCAAGCGCCATCTAC | 1.03 RPM ratio (pull-down/input)
GATGATTGTTCTCCCAGCTGATGAATTGTATTGCTCGAGTAAACAAATTTTCCTAATCTTTCTGTTCAAGCGCCATCTAC | 1.3 RPM ratio (pull-down/input)
GATGATTGTTCTCCCAGCTGATGAATTCTAAAAGTCGAGTAAACAAATTTTCCTAATCTTTCTGTTCAAGCGCCATCTAC | 0.824 RPM ratio (pull-down/input)
GATGATTGTTCTCCCAGCTGATGAATTAGCGATTTCGAGTAAACAAATTTTCCTAATCTTTCTGTTCAAGCGCCATCTAC | 1.01 RPM ratio (pull-down/input)
GATGATTGTTCTCCCAGCTGATGAATTGCGCGCGTCGAGTAAACAAATTTTCCTAATCTTTCTGTTCAAGCGCCATCTAC | 1.17 RPM ratio (pull-down/input)
GATGATTGTTCTCCCAGCTGATGAATTTGCTCCCTCGAGTAAACAAATTTTCCTAATCTTTCTGTTCAAGCGCCATCTAC | 0.995 RPM ratio (pull-down/input)
GATGATTGTTCTCCCAGCTGATGAATTGTCTCCTTCGAGTAAACAAATTTTCCTAATCTTTCTGTTCAAGCGCCATCTAC | 1.08 RPM ratio (pull-down/input)
GATGATTGTTCTCCCAGCTGATGAATTTTCAGCGTCGAGTAAACAAATTTTCCTAATCTTTCTGTTCAAGCGCCATCTAC | 0.878 RPM ratio (pull-down/input)
GATGATTGTTCTCCCAGCTGATGAATTCATGCTGTCGAGTAAACAAATTTTCCTAATCTTTCTGTTCAAGCGCCATCTAC | 1.07 RPM ratio (pull-down/input)
GATGATTGTTCTCCCAGCTGATGAATTGGCGTTGTCGAGTAAACAAATTTTCCTAATCTTTCTGTTCAAGCGCCATCTAC | 1.01 RPM ratio (pull-down/input)
GATGATTGTTCTCCCAGCTGATGAATTTGGGTTATCGAGTAAACAAATTTTCCTAATCTTTCTGTTCAAGCGCCATCTAC | 0.936 RPM ratio (pull-down/input)
GATGATTGTTCTCCCAGCTGATGAATTACAGGGTTCGAGTAAACAAATTTTCCTAATCTTTCTGTTCAAGCGCCATCTAC | 0.977 RPM ratio (pull-down/input)
GATGATTGTTCTCCCAGCTGATGAATTAGGAATGTCGAGTAAACAAATTTTCCTAATCTTTCTGTTCAAGCGCCATCTAC | 0.887 RPM ratio (pull-down/input)
GATGATTGTTCTCCCAGCTGATGAATTGTGGTTCTCGAGTAAACAAATTTTCCTAATCTTTCTGTTCAAGCGCCATCTAC | 1.06 RPM ratio (pull-down/input)
GATGATTGTTCTCCCAGCTGATGAATTAGATAAGTCGAGTAAACAAATTTTCCTAATCTTTCTGTTCAAGCGCCATCTAC | 0.925 RPM ratio (pull-down/input)
GATGATTGTTCTCCCAGCTGATGAATTGGAGTGGTCGAGTAAACAAATTTTCCTAATCTTTCTGTTCAAGCGCCATCTAC | 0.855 RPM ratio (pull-down/input)
GATGATTGTTCTCCCAGCTGATGAATTAGAAATGTCGAGTAAACAAATTTTCCTAATCTTTCTGTTCAAGCGCCATCTAC | 0.923 RPM ratio (pull-down/input)
GATGATTGTTCTCCCAGCTGATGAATTTGACCACTCGAGTAAACAAATTTTCCTAATCTTTCTGTTCAAGCGCCATCTAC | 0.853 RPM ratio (pull-down/input)
GATGATTGTTCTCCCAGCTGATGAATTAGCTTATTCGAGTAAACAAATTTTCCTAATCTTTCTGTTCAAGCGCCATCTAC | 0.963 RPM ratio (pull-down/input)
GATGATTGTTCTCCCAGCTGATGAATTAGGATTCTCGAGTAAACAAATTTTCCTAATCTTTCTGTTCAAGCGCCATCTAC | 0.864 RPM ratio (pull-down/input)
